≈ marks a conversion by molar mass, not a printed value. Read-outs that look alike come from different tables or passages of the source.
Assays:
Human herpes virus-6 = assay: organism not typed
[1] = system: Punta Toro Virus - Adames Strain; assay: microbe, parasite or virus in culture; format: cell-based
[2] = system: all virus isolates tested (HIV-1); assay: microbe, parasite or virus in culture; format: cell-based; settings: Human immunodeficiency virus 1, PBMC
Hepatitis B virus = assay: microbe, parasite or virus in culture
[3] = system: SARS coronavirus - Strain Urbani; assay: microbe, parasite or virus in culture; format: cell-based; settings: Severe acute respiratory syndrome coronavirus
[4] = system: Measles Virus - Strain CC; assay: microbe, parasite or virus in culture; format: cell-based; settings: Measles morbillivirus
[5] = system: Yellow Fever Virus - Strain 17D; assay: microbe, parasite or virus in culture; format: cell-based; settings: Vero
[6] = system: Dengue virus 2 - New Guinea C; assay: In vitro viral screen (Table 7), Vero 76; format: cell-based
[7] = system: Rift Valley Fever Virus - Strain MP-12; assay: microbe, parasite or virus in culture; format: cell-based
Hepatitis C virus = assay: microbe, parasite or virus in culture
[8] = system: Pichinde Virus - Strain An 4763; assay: microbe, parasite or virus in culture; format: cell-based; settings: Vero
[9] = system: West Nile Virus - Strain Kerne 515, WN02; assay: In vitro viral screen (Table 7), Vero 76; format: cell-based
[10] = system: Respiratory Syncytial Virus - Strain A2; assay: microbe, parasite or virus in culture; format: cell-based; settings: human respiratory syncytial virus
[11] = system: Tacaribe Virus - Strain TRVL 11573; assay: microbe, parasite or virus in culture; format: cell-based; settings: Mammarenavirus tacaribeense, Vero
[12] = Vero 76, read-out: EC50 (neutral red)
[13] = Vero 76, read-out: EC50 (visual)

## NCC(=O)Nc1ccc(-n2nc(C(F)(F)F)cc2-c2ccc3c(ccc4ccccc43)c2)cc1 [AR-12, 2-amino-N-(4-(5-(phenanthren-2-yl)-3-(trifluoromethyl)-1H-pyrazol-1-yl)phenyl)acetamide]
Human herpes virus-6
  EC50: > 0.48 µM
  EC90: > 0.48 µM
[1]; [12]
  EC50: 1 µg/mL (≈ 2.17 µM)
[1]; [13]
  EC50: 2.5 µg/mL (≈ 5.43 µM)
[2]; read-out: IC50 range
  IC50: 0.489 to 1.02 µM
[2]; read-out: average IC50 value
  IC50: 0.812 µM
Hepatitis B virus
  EC50: 6.65 µM
  EC90: 56.8 µM
[3]; [12]
  EC50: > 1.5 µg/mL
[3]; [13]
  EC50: 3.2 µg/mL (≈ 6.95 µM)
[4]; [12]
  EC50: 1.9 µg/mL (≈ 4.13 µM)
[4]; [13]
  EC50: 2.6 µg/mL (≈ 5.65 µM)
[5]; read-out: EC50 (Neutral Red)
  EC50: 0.28 µg/mL (≈ 0.608 µM)
[5]; read-out: EC50 (visual)
  EC50: 0.32 µg/mL (≈ 0.695 µM)
[6]; [12]
  EC50: 0.86 µg/mL (≈ 1.87 µM)
[6]; [13]
  EC50: 3.2 µg/mL (≈ 6.95 µM)
[7]; [12]
  EC50: > 100 µg/mL
[7]; [13]
  EC50: > 100 µg/mL
Hepatitis C virus
  EC50: 0.12 µM
  EC90: 0.19 µM
[8]; read-out: EC50 (neutral red)
  EC50: 2.2 µg/mL (≈ 4.78 µM)
[8]; read-out: EC50 (visual)
  EC50: 1.3 µg/mL (≈ 2.82 µM)
[9]; [12]
  EC50: 2.6 µg/mL (≈ 5.65 µM)
[9]; [13]
  EC50: 3.2 µg/mL (≈ 6.95 µM)
[10]; MA104, read-out: EC50 (neutral red)
  EC50: 3.1 µg/mL (≈ 6.73 µM)
[10]; MA104, read-out: EC50 (visual)
  EC50: 3.2 µg/mL (≈ 6.95 µM)
[11]; read-out: EC50 (neutral red)
  EC50: 0.86 µg/mL (≈ 1.87 µM)
[11]; read-out: EC50 (visual)
  EC50: 0.62 µg/mL (≈ 1.35 µM)

Source: patent US20160213647A1, “COMPOSITIONS AND METHODS FOR INHIBITING VIRAL INFECTION” (priority 2015, published 2016)
